Source: PubChem BioAssay AID1347120 (National Center for Advancing Translational Sciences (NCATS), 2019)
The whole screen tested about 390,000 compounds, of which about 930 (0.24%) were called active. The inconclusive results got no clear call from the source; some entries with a clear call stand among them for comparison. Calls come from the whole dose curve; as a rule, active = well fitted activation curve with a large enough effect; inconclusive = small, poorly fitted or top-dose-only effect; inactive = no such curve, though single readings can be large or run the other way. A potency beside an inconclusive call is a rough fit, not a confirmed value.

assay: qHTS for Suppressors of FUS Proteinopathy: Primary screen using FUS-linked yeast assay; note: nearly all actives have a fitted effect of over 55% in size; conditions: S. cerevisiae FUS-expressing, OD600, 24 h; Potency: growth rescue; series mostly up to 76.6 µM
Summary of the method: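 Restored growth of FUS-toxic S. cerevisiae, read as 600 nm absorbance after 24 h at 30C in galactose medium (starting OD 0.005). Controls CP55940 and DMSO.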
Potency is the fitted concentration of half-maximal effect; tags give direction and shape of the fitted curve.

**Q.** With `CCCOc1ccc(C2c3c(oc4cc(C)c(C)cc4c3=O)C(=O)N2CCCN(C)C)cc1OCC` (stereo unspecified) as the molecule, how does the Potency read?
**A.** inconclusive: 14.1 µM [activator, partial curve]

**Q.** For `Cc1cc(C)n(C(N)=NC(=O)c2ccccc2)n1`, which Potency is on record?
**A.** inactive

**Q.** With `CCc1cccc(NC2c3ccccc3C(=O)N2c2ccc(C)cn2)c1` (stereo unspecified) as the molecule, how does the Potency read?
**A.** inconclusive: 28.2 µM [activator, single point]

**Q.** With `CCOc1ccc(CCNC(=O)c2ccc3c(=O)n4c(nc3c2)CCCCC4)cc1` as the molecule, how does the Potency read?
**A.** inconclusive: 14.1 µM [activator, partial curve]

**Q.** With `CCOc1ccccc1NC(=O)Cn1cc(C(=O)c2ccc(Cl)cc2)c(=O)c2ccc(C)nc21` as the molecule, how does the Potency read?
**A.** inactive

**Q.** For `CCN1C(=O)[C@H]2[C@@H](c3ccc(-c4ccc(C(C)=O)cc4)c(OC)c3)N3CCCC[C@@]3(C(=O)OC)[C@H]2C1=O`, which Potency is on record?
**A.** inconclusive: 22.4 µM [activator, single point]

**Q.** Which Potency does the source give for `O=C(Oc1ccc(C(=S)N2CCOCC2)cc1)c1cc([N+](=O)[O-])cc([N+](=O)[O-])c1` here?
**A.** inactive

**Q.** Which Potency does the source give for `COc1ccc(C)cc1N(C(=O)c1snc(C(N)=O)c1N)C(C(=O)NC1CCCCC1)c1ccc(C)o1` (stereo unspecified) here?
**A.** inconclusive: 28.2 µM [activator, single point]

**Q.** Which Potency does the source give for `C=CCn1c(SCC(=O)NC2CCCCC2)nnc1-c1sc(N)nc1C` here?
**A.** inconclusive: 35.5 µM [activator, partial curve, poor fit]

**Q.** Which Potency does the source give for `O=C(Nc1nc2c(s1)CN(Cc1ccccc1)CC2)C1CCC1` here?
**A.** inconclusive: 14.1 µM [activator, partial curve, poor fit]

**Q.** Which Potency does the source give for `Cc1ccsc1CN(C(=O)c1oc2cc(Br)ccc2c1C)C1CCS(=O)(=O)C1` (stereo unspecified) here?
**A.** inconclusive: 25.1 µM [activator, single point]

**Q.** With `CCOC(=O)c1c(-c2ccccc2)csc1NC(=O)c1cc(-c2ccc(F)cc2)on1` as the molecule, how does the Potency read?
**A.** inactive

**Q.** With `CCCC(=O)Nc1ccc2oc(=O)ccc2c1` as the molecule, how does the Potency read?
**A.** inactive

**Q.** For `COc1ccc(OC(=O)c2c(C)nn(-c3ccccc3)c2C)cc1`, which Potency is on record?
**A.** inactive

**Q.** With `COCCN1C(=O)C(O)=C(C(=O)c2ccco2)C1c1cccc(Oc2ccccc2)c1` (stereo unspecified) as the molecule, how does the Potency read?
**A.** inconclusive: 31.6 µM [activator, partial curve, poor fit]

**Q.** With `CN(C)S(=O)(=O)c1cc(NC(=O)COC(=O)CC2Sc3ccccc3NC2=O)ccc1Cl` (stereo unspecified) as the molecule, how does the Potency read?
**A.** inconclusive: 31.6 µM [activator, single point]

**Q.** For `CCCOc1c(Cl)cc(C(=O)N(Cc2cccc(OC)c2)C2CCS(=O)(=O)C2)cc1Cl` (stereo unspecified), which Potency is on record?
**A.** inconclusive: 25.1 µM [activator, partial curve]

**Q.** For `CCOc1ccc(NC(=O)CN(c2ccc(Cl)cc2C)S(=O)(=O)c2ccccc2)cc1`, which Potency is on record?
**A.** active: 22.4 µM

**Q.** For `COc1ccc(NC(=O)CN(c2ccc(C)cc2)S(=O)(=O)c2cccc3nonc23)cc1OC`, which Potency is on record?
**A.** inactive

**Q.** For `COc1cc(NC(=O)c2ccc(-c3cccc(F)c3)o2)ccc1NC(=O)c1ccccc1Cl`, which Potency is on record?
**A.** inconclusive: 14.1 µM [activator, partial curve]

**Q.** For `CCc1[nH]c(=O)c(C#N)c2c1COC(C)(C)C2`, which Potency is on record?
**A.** inactive

**Q.** For `COCCCNC(=O)C[C@H]1C[C@@]2(C(=O)OC)C(=C[C@H](COCc3ccccc3)O[C@@H]2C)N(Cc2cccc3ccccc23)C1=O`, which Potency is on record?
**A.** inconclusive: 35.5 µM [activator, single point]

**Q.** For `C=CCC[C@H](Cc1ccc(F)cc1)C(=O)OC[C@@H](NC(=O)[C@@H](CC=C)CC(=O)N[C@@H](CO)Cc1ccccc1)C(C)(C)C`, which Potency is on record?
**A.** active: 12.6 µM

**Q.** With `O=C(CSc1nnc(-c2ccccc2)n1-c1ccccc1)Nc1ccccc1-c1ccccc1` as the molecule, how does the Potency read?
**A.** inconclusive: 17.8 µM [activator, single point]

**Q.** For `Cn1cc(C(=O)N2CCN(c3cccc(C(F)(F)F)c3)CC2)c2c3ccccc3n(C)c2c1=O`, which Potency is on record?
**A.** inconclusive: 35.5 µM [activator, single point]

**Q.** With `COc1cc(NC(=O)COCc2cc(-c3ccc(F)cc3)on2)cc(OC)c1OC` as the molecule, how does the Potency read?
**A.** inactive

**Q.** Which Potency does the source give for `Clc1ccc(OCc2nnc(SCc3nc4ccccc4[nH]3)n2Cc2ccco2)cc1` here?
**A.** inconclusive: 25.1 µM [activator, partial curve, poor fit]

**Q.** Which Potency does the source give for `Cc1nn(C(C)(C)C)c(OC(=O)C(C)(C)C)c1Sc1ccccc1` here?
**A.** inactive

**Q.** Which Potency does the source give for `CN(C)S(=O)(=O)c1ccc(C(=O)NNc2nc(-c3ccccc3)c3cc(Br)ccc3n2)cc1` here?
**A.** inconclusive: 35.5 µM [activator, partial curve]

**Q.** Which Potency does the source give for `O=C(NCc1ccccc1Cl)NCc1noc2ccccc12` here?
**A.** inactive

**Q.** For `COc1cc(CNc2ncnc3c2ncn3[C@H]2CN(Cc3cccc(C(F)(F)F)c3)C[C@@H](CO)O2)cc(OC)c1OC`, which Potency is on record?
**A.** inconclusive: 50.1 µM [activator, single point]

**Q.** For `O=C(Cc1ccc(Br)cc1)Nc1ncc([N+](=O)[O-])s1`, which Potency is on record?
**A.** inactive

**Q.** Which Potency does the source give for `CCOC(=O)c1c(C)nc2c(c1-c1ccccc1)C(=O)c1ccccc1-2` here?
**A.** inconclusive: 12.6 µM [activator, partial curve]

**Q.** For `COc1ccc(S(=O)(=O)N(C)C[C@H]2OCCCC[C@@H](C)Oc3ccc(NC(=O)CCC(F)(F)F)cc3C(=O)N([C@H](C)CO)C[C@@H]2C)cc1`, which Potency is on record?
**A.** inconclusive: 22.4 µM [activator, single point]

**Q.** With `Cc1ccc(N2C(=O)[C@@H]3CSC(c4ccc(F)cc4)N3C2=O)cc1` (stereo partly specified) as the molecule, how does the Potency read?
**A.** inactive

**Q.** Which Potency does the source give for `COc1cccc(NC(=O)C(Cc2ccccc2)n2cccc2)c1` (stereo unspecified) here?
**A.** inactive

**Q.** For `Fc1ccc(CSc2nnc(-c3ccncc3)o2)cc1`, which Potency is on record?
**A.** inactive

**Q.** Which Potency does the source give for `CCCNS(=O)(=O)c1ccc(OCC(=O)Nc2ccccc2F)cc1` here?
**A.** inactive

**Q.** Which Potency does the source give for `CC(C)(C)N=C1NN=C(c2ccc(S(=O)(=O)N3CCCCC3)cc2)CS1` here?
**A.** inconclusive: 20 µM [activator, partial curve, poor fit]

**Q.** For `COC(=O)COc1ccc(C2Nc3c(Cl)ccc(C(=O)O)c3C3C=CCC32)cc1` (stereo unspecified), which Potency is on record?
**A.** inconclusive: 35.5 µM [activator, single point]

**Q.** With `O=C(O)CCCCn1c(SCc2ccccc2Cl)nc2ccsc2c1=O` as the molecule, how does the Potency read?
**A.** inconclusive: 44.7 µM [activator, single point]

**Q.** For `CCCCN(C)C(=O)c1ccc(Nc2nc(C(N)COCc3ccccc3)cs2)nc1` (stereo unspecified), which Potency is on record?
**A.** inconclusive: 44.7 µM [activator, single point]

**Q.** Which Potency does the source give for `Cc1ccc2c(c1)c1ccc3c(c1n2C)C(=O)C=CC3=O` here?
**A.** inactive

**Q.** For `CCCCCCCCCOC(=O)C1N2C(=O)[C@@H](NC(=O)COc3ccccc3)[C@H]2SC1(C)C` (stereo partly specified), which Potency is on record?
**A.** inconclusive: 11.2 µM [activator, partial curve]

**Q.** With `O=S(=O)(c1ccc2oc(=S)[nH]c2c1)N1CCCCC1` as the molecule, how does the Potency read?
**A.** inactive

**Q.** For `COc1ccc(Cl)cc1NC(=O)CN(C)CC(=O)Nc1ccccc1-c1ccccc1`, which Potency is on record?
**A.** inactive

**Q.** For `CCCCCCCCN1C(=O)[C@@H](CC(=O)N2CCCCC2)C[C@@]2(C(=O)OC)C1=C[C@H](C(C)C)O[C@@H]2C1CC1`, which Potency is on record?
**A.** inconclusive: 10 µM [activator, full curve]

**Q.** Which Potency does the source give for `Cc1ccc(SCC(=O)Nc2ccc(-c3nc4ccccc4[nH]3)cc2)cc1` here?
**A.** inactive

**Q.** With `COc1ccccc1CNC(=O)c1ccc(-c2nc(CN3CCc4ccccc43)c(C)o2)cc1` as the molecule, how does the Potency read?
**A.** inconclusive: 12.6 µM [activator, partial curve, poor fit]

**Q.** With `Cc1cc(C)c2c(CC(=O)N(Cc3ccccc3)C3CCS(=O)(=O)C3)coc2c1` (stereo unspecified) as the molecule, how does the Potency read?
**A.** inactive

**Q.** For `CCC(=O)N1CCc2cc(Br)cc(S(=O)(=O)N3CCCC(C(=O)N(C)c4ccc(Br)cc4)C3)c21` (stereo unspecified), which Potency is on record?
**A.** inconclusive: 4.47 µM [activator, full curve, poor fit]

**Q.** With `Cc1ccc(CNC(=O)Cn2c(=O)n(-c3ccccc3)c(=O)c3sccc32)cc1` as the molecule, how does the Potency read?
**A.** inconclusive: 8.91 µM [activator, partial curve, poor fit]

**Q.** For `CNC(=S)N1N=C(c2ccc(C)cc2)CC1c1cc(OC)ccc1OC` (stereo unspecified), which Potency is on record?
**A.** inconclusive: 56.2 µM [activator, partial curve, poor fit]

**Q.** Which Potency does the source give for `O=C(OCC(=O)N(CCc1ccccc1)Cc1ccccc1)c1cccc(S(=O)(=O)N2CCOCC2)c1` here?
**A.** inconclusive: 25.1 µM [activator, single point]

**Q.** With `O=C(Cc1n[nH]c(=O)c2ccccc12)OCC(=O)c1ccc2c(c1)OCCO2` as the molecule, how does the Potency read?
**A.** inconclusive: 50.1 µM [activator, single point]

**Q.** Which Potency does the source give for `CN(CCc1ccccc1)C(=O)c1ccc(NC(=O)Cc2ccc(NC(=O)C3CCCN(C(=O)C4CCCC4)C3)cc2)cc1` (stereo unspecified) here?
**A.** inconclusive: 39.8 µM [activator, single point]

**Q.** With `CC1=C(C(=O)OCC2CCCO2)C(c2ccccc2OC(C)C)C2=C(CC(c3ccco3)CC2=O)N1` (stereo unspecified) as the molecule, how does the Potency read?
**A.** inconclusive: 35.5 µM [activator, single point]

**Q.** For `Cc1cc(OCC(=O)N(Cc2sccc2C)C2CCS(=O)(=O)C2)ccc1Cl` (stereo unspecified), which Potency is on record?
**A.** inconclusive: 28.2 µM [activator, single point]

**Q.** Which Potency does the source give for `O=C(NCc1csc(-c2cccs2)n1)C1CCC1` here?
**A.** inactive

**Q.** With `CN(C)S(=O)(=O)c1cccc(-n2sc3ccccc3c2=O)c1` as the molecule, how does the Potency read?
**A.** inactive

**Q.** Which Potency does the source give for `Cc1ccc(S(=O)(=O)NC(CC(C)C)C(=O)N2CCCC2)cc1` (stereo unspecified) here?
**A.** inconclusive: 2.82 µM [activator, full curve]

**Q.** Which Potency does the source give for `COc1ccc(C(=O)O)cc1NC(=S)NC(=O)c1ccc(-c2ccc(Cl)cc2)o1` here?
**A.** inactive

**Q.** Which Potency does the source give for `COC(=O)c1sc(N)nc1CCNC(=O)OC(C)(C)C` here?
**A.** inactive

**Q.** Which Potency does the source give for `CC(=NNC(=S)N1CC2CCC(CC2)C1)c1ccccn1` here?
**A.** inactive

**Q.** For `O=c1c(S(=O)(=O)c2ccccc2)cn(Cc2ccccc2)c2cc(N3CCOCC3)c(F)cc12`, which Potency is on record?
**A.** inconclusive: 39.8 µM [activator, single point]

**Q.** With `COc1ccc(C(=O)Nc2ccc3c(c2)C(=O)N(C)[C@H]2CC[C@H](CC(=O)NCC4CC4)O[C@@H]2CO3)cc1` as the molecule, how does the Potency read?
**A.** inactive
